Drawing on PubChem BioAssay AID1346428 (National Center for Advancing Translational Sciences (NCATS), 2018), this text covers activation for 82 compounds.

Each structure is given as a SMILES string. Values joined by “and” are separate entries in the source; they are usually repeats but may differ in a detail not shown here. Identical values can stand only once. The campaign covered roughly 48,000 compounds. About 1,200 (2.5%) were called active. Not shown: some 2% with an inconclusive outcome.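 The calls were made as follows: active = activation of at least 60% and not above a set upper limit (about 1 call in 100 departs from these limits); inconclusive = activation of 40% to 60%, or above that upper limit; inactive = activation under 40%.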 The list shows a part of the results.

UniProt O75388, sequence (O75388 whole entry, looked up): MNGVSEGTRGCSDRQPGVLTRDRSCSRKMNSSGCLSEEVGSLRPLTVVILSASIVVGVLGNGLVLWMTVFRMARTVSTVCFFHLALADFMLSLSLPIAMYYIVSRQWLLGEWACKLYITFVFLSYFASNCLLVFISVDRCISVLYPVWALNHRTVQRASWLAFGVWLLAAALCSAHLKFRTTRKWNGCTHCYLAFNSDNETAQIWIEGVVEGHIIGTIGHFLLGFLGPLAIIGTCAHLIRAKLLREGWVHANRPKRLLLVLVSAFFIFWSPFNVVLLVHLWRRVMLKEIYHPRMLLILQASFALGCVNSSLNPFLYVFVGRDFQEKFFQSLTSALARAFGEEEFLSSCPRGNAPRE

In this assay the target is Probable G-protein coupled receptor 32 (Homo sapiens) (UniProt O75388). The assay is described as follows: qHTS for Agonists of Human Resolvin D1 Receptor DRV1. Also: 0% is about no effect. The following applies: CHO-K1 GPR32 beta-arrestin PathHunter luminescence, 90 min; at 76.9 µM; hits give high values; zero percent set by DMSO-only wells. In short, it runs like this:
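Step 1: seed CHO-K1 GPR32 beta-arrestin cells, 2,500/well, overnight at 37 °C. Step 2: add compounds, 90 min at 37 °C. Step 3: detection reagent, 1 h ambient, then luminescence.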
(In general: Quantitative high-throughput screening tests each substance at several concentrations.)
For the compound `Cc1ccc(NC(=O)c2sc3nc4n(c(=O)c3c2C)CCCCC4)c(Br)c1`, the activation is inactive: -14.4%.
Take `CN(C(=O)Cn1c(=O)n(CCC(=O)NCc2ccc3c(c2)OCO3)c(=O)c2sccc21)c1ccccc1`: the activation is inactive: -15%.
On to `Cc1ccc(-n2ncc(C(=O)N3CCN(C4CCCCC4)CC3)c2C2CCN(C(=O)OC(C)(C)C)CC2)cc1C`, for which the activation was inactive: -14.5%.
For the compound `COc1ccc(N2C(=O)CSC23C(=O)N(Cc2ccccc2F)c2ccccc23)cc1Cl` (configuration not stated), the activation was inactive: -19%.
For the compound `O=S(=O)(NCc1ccccc1Cl)c1ccc(-c2cnc(C3CC3)o2)cc1`, the activation is inactive: 0.997%.
With `CCC1=Nc2cc(C(=O)NCc3ccccc3OC)ccc2Sc2ccc(Cl)cc21`, the activation is inactive: -31.9%.
Turning to `COc1ccc(-c2cn3cccnc3n2)cc1NC(=O)COc1ccccc1`, the activation is inactive: 10%.
Take `Cc1c(CC(=O)N2CCCCC2)c(=O)oc2cc3occ(C(C)(C)C)c3cc12`: the activation was inactive: -2.33%.
Under `CN1CCN(C(c2ccc(Cl)cc2Cl)c2sc3nc(-c4ccco4)nn3c2O)CC1` (configuration not stated) stands inactive: -2.91%; under `Cn1nc(C(=O)NCc2cccc(Cl)c2)c2c1-c1ccccc1SC2`, inactive: -15.6%; under `COCCNc1ncnc2c1cnn2-c1cc(Cl)ccc1C`, inactive: 37.4%.
As to `Cc1cc(C)c2c(n1)SCC(=O)N2CC(=O)Nc1ccc(C)c(C)c1`, the activation is inactive: 0.748%.
For the compound `Cc1ccc(OCC(=O)Nc2ccc(OCc3cc(=O)n4ccsc4n3)cc2)cc1`, the activation was inactive: -18.9%.
Consider `CCC(=O)N1c2ccccc2CC1C(=O)NCCc1ccccc1Cl` (configuration not stated), for which the activation is inactive: 7.87%.
As to `Cc1ccc(S(=O)(=O)C2(C(=O)Nc3ccc(C)c(Cl)c3)CC2)cc1`, the activation is inactive: -11.8%.
Consider `COc1ccc(N2CCN(c3ncnc4c3cnn4-c3ccc(C)c(Cl)c3)CC2)cc1`, for which the activation is inactive: 24.6%.
As for `CC(C)(C)C(=O)NC1(C(F)(F)F)NC(=O)N(c2ccc(F)cc2)C1=O` (configuration not stated), the activation is inactive: -5.46%.
In the case of `Cc1ccc(Cl)cc1N1CCN(C(=O)CN2C(=O)COc3ccc(S(=O)(=O)N4CCC(C)CC4)cc32)CC1`, the activation was inactive: -15.3%.
Under `CC1=C(c2ccc(C)cc2)S(=O)(=O)NC1=NCCCN1CCN(c2cc(C)ccc2C)CC1` stands active: 84.3%.
Under `Cc1ccc(CNC(=O)CCS(=O)(=O)c2cc3c(cc2Cl)NC(=O)CO3)cc1` stands inactive: -3.49%; under `O=C(NCc1ccc(Cl)cc1)c1ccc(NC(=O)N2CC3CCCN3c3ccccc32)cc1` (configuration not stated), inactive: -32.8%.
Consider `CCOC(=O)C1CCN(C(=O)Cn2c(-c3cccs3)cc3cc(Cl)ccc32)CC1`, for which the activation was inactive: -12.8%.
For `CCOC(=O)CN(Cc1ccccc1)C(C(=O)NC1CCCCC1)c1ccc(C)cc1` (configuration not stated) the value was inactive: -7.31%.
Take `Cc1c(C(=O)NCc2ccccc2Cl)sc2nc(-c3ccc(F)cc3)cn12`: the activation is inactive: -15.9%.
Regarding `O=C(NCc1ccc(F)cc1)c1cc(Sc2ccc(F)cc2F)nc2ccccc12`, the activation was inactive: -33.7%.
For `COc1ccc(CNC(=O)c2ccc(-c3nc(CSc4ccc(C)cc4)c(C)o3)cc2)cc1OC` the value was inactive: -6.35%; for `Cc1nn(C(=O)c2ccccc2)c(C)c1S(=O)(=O)N1CCOCC1`, inactive: 12.2%.
For `CCC(=O)N1CCc2cc(S(=O)(=O)NC(C(=O)NCc3ccccc3Cl)C(C)C)ccc21` (configuration not stated) the value was inactive: -9.52%.
On to `CCOc1ccccc1CNS(=O)(=O)c1ccc2c(c1)C(C)(C)C(=O)N2C`, for which the activation is inactive: 2.24%.
On to `CN(C(=O)CSc1nc2ccc(NC(=O)c3ccccc3F)cc2s1)c1ccccc1`, for which the activation is inactive: -10.8%.
For the compound `C[N+](C)(C)CCOC(N)=O`, the activation is inactive: -6.54% and inactive: 2.21%.
Under `Cc1ccc(CNC(=O)c2cccc(N3CCCS3(=O)=O)c2)cc1` stands inactive: 36.6%; under `COC(=O)c1cccc(NC(=O)N(C)CCc2c(C)nn(C)c2C)c1`, inactive: -2.2%.
Turning to `CCc1ccc(-n2nc3ccc(NC(=O)c4cc(Cl)c(OC)c(Cl)c4)cc3n2)cc1`, the activation is inactive: -6.04%.
For `CCOc1ccc(C2C(=O)N(C3CCCCCC3)CC(=O)N2CCC2=CCCCC2)cc1OC` (configuration not stated) the value was inactive: -35.2%; for `Cc1ccc(NC(=O)CN(CCc2ccccc2)S(=O)(=O)c2ccccc2)c(C)c1`, inactive: 10.3%; for `CCOc1ccc(CNC(=O)Cn2nc(C)n3cccc3c2=O)cc1`, inactive: -8.88%.
Turning to `CCCCn1cc(S(=O)(=O)c2ccc(OCC)cc2)c(=O)c2cc(OC)c(OC)cc21`, the activation was inactive: -26%.
Under `CCOc1ccc(N2CC(C)Cn3c2nc2c3c(=O)n(CC(=O)O)c(=O)n2C)cc1` (configuration not stated) stands inactive: 4.78%; under `COc1cc(N2C(=O)CSC23C(=O)N(C)c2ccccc23)cc(OC)c1OC` (configuration not stated), inactive: 1.13%.
With `Cc1ccc(CNC(=O)Cn2c(=O)n(Cc3ccccc3)c(=O)c3c2c2cc(C)ccc2n3C)cc1`, the activation is inactive: 0.279%.
Take `COc1ccc(CN2CCc3nc(Nc4ccccc4)ncc3C2)c(OC)c1OC`: the activation was inactive: -16.1%.
Consider `Cc1cc(C)cc(NC(=O)C(=O)NCC(c2ccc3c(c2)OCO3)N2CCOCC2)c1` (configuration not stated), for which the activation was inactive: -14.6%.
As for `COCCN1Cc2cccc(C(=O)Nc3ccc(C)c(F)c3)c2C1=O`, the activation was inactive: 0.358%.
For `Fc1ccc(-c2cc(-c3nc(-c4ccccc4)no3)[nH]n2)cc1` the value was inactive: -9.26%; for `COc1ccc(Nc2nc3c(S(=O)(=O)c4ccccc4)nnn3c3ccc(Cl)cc23)c(OC)c1`, inactive: -2.48%; for `CC(C)c1ccc(NC(=O)c2cn(C3CCCCC3)c(=O)c3c2c2ccccc2n3C)cc1`, inactive: 3.34%.
With `CC(C)(C)NC[C@H](O)COc1cccc2c1CCCC2=O`, the activation is inactive: -1.41%.
For `Cc1ccccc1CNC(=O)c1cccc(NC(=O)c2nsc3ccccc23)c1` the value was inactive: -22.6%.
For `COc1ccc(-c2nc(C)c(CCNC(=O)c3ccc(F)c(F)c3)s2)cc1`, the activation was inactive: 50%.
For `Cc1ccccc1NC(=O)N1CCc2cc(S(=O)(=O)N3CCC(C)CC3)ccc21` the value was inactive: -24.9%; for `Cc1nc2nc(SCC(=O)Nc3cccc(Cl)c3)nn2c(C)c1Cc1ccccc1`, inactive: 9.31%.
Under `CCCCn1c(=N)c(S(=O)(=O)c2ccccc2)cc2c(=O)n3cccc(C)c3nc21` stands inactive: -6.21%; under `CC(C)Cn1cc(NC(=O)NCc2ccccc2)c2ccccc2c1=O`, inactive: -39.1%.
For `Cc1ccc2c(c1)c1c(c(=O)n(-c3cccc(Cl)c3)c(=O)n1CC(=O)c1ccc(Cl)cc1)n2C` the value was inactive: 9.72%; for `OC[C@H]1O[C@H](n2cnc3c(N[C@H]4CCC[C@@H]4O)ncnc32)[C@H](O)[C@@H]1O`, inactive: 4.72%.
Take `COc1ccccc1C1=NS(=O)(=O)N(C)C(C(=O)Nc2cc(OC)c(OC)c(OC)c2)=C1`: the activation was inactive: -15.8%.
Under `COc1ccc(C)cc1NC(=O)C1CCN(S(=O)(=O)c2ccc3[nH]c4c(c3c2)CCCCC4)CC1` stands inactive: -14.8%; under `Nc1cc(=O)nc(SCC(=O)Nc2ccc(F)cc2)n1-c1ccccc1Cl`, inactive: -2.06%; under `O=C(COc1ccc([N+](=O)[O-])cc1)NCC1(N2CCOCC2)CCCCC1`, inactive: -7.89%.
For `Cc1cc(C)cc(NC(=O)CCCN2C(=O)COc3ccc(C)cc32)c1` the value was inactive: -20.3%; for `Oc1c(C(c2ccccc2F)N2CCCCC2)sc2nc(-c3ccco3)nn12` (configuration not stated), inactive: -2.46%.
In the case of `CC(=O)c1cccc(NC(=O)CSc2nc(=O)n(Cc3cccnc3)c3c2CCC3)c1`, the activation is inactive: -6.7%.
For `CCCCc1nc2ccccc2n2c(-c3ccc(OC)cc3)c3c(=O)n(C)c(=O)n(C)c3c12` the value was inactive: -18%; for `CC(C)c1ccc(NC(=O)C2CCN(c3nc(-c4ccc(C(C)C)cc4)no3)CC2)cc1`, inactive: -8.56%.
As for `Cc1c(C(=O)N2CCC(C)CC2)c(S(=O)(=O)NCc2ccc(Br)cc2)c(C)n1C`, the activation was inactive: -19.6%.
In the case of `O=C(CCc1cn(Cc2ccccc2Cl)c2ccccc12)NC1CCCCC1`, the activation was inactive: -14.2%.
Regarding `CC(C)CC(=O)Nc1ccc(S(=O)(=O)Nc2cc3c(cc2N2CCOCC2)n(C)c(=O)c(=O)n3C)cc1`, the activation is inactive: 1.84%.
With `Cc1ccc(NC(=O)c2cn3c4c(ccc(Cl)c4c2=O)OC(C)C3)c(C)c1` (configuration not stated), the activation is inactive: 9.11%.
As for `COc1ccc(-n2ncc(C(=O)N3CCN(c4ncccn4)CC3)c2C2CCN(C(=O)OC(C)(C)C)CC2)cc1`, the activation was inactive: -0.907%.
For `Cc1nc2sccn2c(=O)c1CCN1CCC(=C(c2ccc(F)cc2)c2ccc(F)cc2)CC1` the value was inactive: 13.1% and inactive: -17.6%; for `Cc1ccccc1Nc1c(-c2ccc(Cl)s2)nc2c(C)cccn12`, inactive: -19%.
For `COc1ccc(CNC(=O)c2cc(-c3cccc(Cl)c3)on2)cc1` the value was active: 65.9%; for `CCOc1ccccc1NC(=O)Cn1c(=O)n(CCCC(=O)NCCc2ccc(C)cc2)c(=O)c2ccccc21`, inactive: 5.41%; for `COc1ccc(-c2c(C)c3cc(OC(=O)N4CCOCC4)ccc3oc2=O)cc1`, inactive: 8.2%.
As to `CC(C)(C)OC(=O)N1CCC(c2c(C(=O)NCCCN3CCc4ccccc4C3)cnn2-c2ccccc2)CC1`, the activation was inactive: -32.9%.
Consider `Cc1ccc(N2CC(NC(=O)c3ccc(S(=O)(=O)N4CCCC4)cc3)CC2=O)cc1` (configuration not stated), for which the activation was inactive: -3.96%.
For `COc1ccc(OC)c(NC(=O)CCc2c(C)nn(-c3ccc(N4CCCC4)nn3)c2C)c1` the value was inactive: -8.69%; for `C[C@H](CCC(=O)O)[C@H]1CC[C@H]2[C@@H]3C(=O)C[C@@H]4CC(=O)CC[C@]4(C)[C@H]3CC(=O)[C@]12C`, inactive: -4.38%.
For `CC(C)c1ccc(NC(=O)c2ccc3c(c2)CCCN3S(C)(=O)=O)cc1` the value was inactive: 31.9%.
For `O=C(Nc1ccc2c(c1)CCCN2C(=O)c1cccs1)c1c(F)cccc1F` the value was inactive: 4.26%.
For the compound `COc1ccc(-c2nc(C)c(CCNC(=O)C(=O)Nc3c(C)cccc3C)s2)cc1OC`, the activation was active: 70%.
